Source: PubChem BioAssay AID651820 (National Center for Advancing Translational Sciences (NCATS), 2012)
The campaign covered roughly 340,000 compounds. About 12,000 (3.5%) were called active. Inconclusive means that the source gave no clear call. Such entries were picked first, then a sample of the others. Calls come from the whole dose curve; as a rule, active = well fitted inhibition curve with a large enough effect; inconclusive = small, poorly fitted or top-dose-only effect, or another doubt; inactive = no such curve, though single readings can be large or run the other way. No potency is given beside an inconclusive call; the fits are too rough.

Assay: qHTS Assay for Inhibitors of Hepatitis C Virus (HCV)
Settings: Huh7.5.1 HCVcc-Cre (HCVcc is cell-culture hepatitis C virus) infection, luciferase reporter, 44 h; activity change, negative = inhibition: at 41.8 µM (top of the series) unless noted
Outline: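 Compounds are dispensed onto cells plated 4 h earlier at 1,000 per well, with HCVcc-Cre virus (about 0.5 moi) added next. Following 44 h of culture, luminescent signal is measured for 15 sec after 15 min with substrate at room temperature.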
% is set by controls: 0 for no effect and ±100 for the full control effect; potency is the fitted concentration of half-maximal effect; tags give direction and shape of the fitted curve.

Compound | Potency | activity change, negative = inhibition
COc1cc(NC(=S)NC(=O)c2ccccc2F)ccc1NC(=O)c1cccs1 | inconclusive [inhibitor, partial curve] | –
Cc1ccc(NC(=O)CN(C)C(=O)CSc2nc(C)cc(C)n2)cc1 | inconclusive [inhibitor, single point] | –
CN(C)c1nc(=NCc2cccs2)ss1 | – | inactive: -8.94%
Cc1ccc(C)c(S(=O)(=O)N2CCCCC2CCNC(=O)C(=O)NCCc2ccco2)c1 (stereo not drawn) | inconclusive [inhibitor, single point] | –
C/C(=N\NC(=O)c1cc(C)nc2ccccc12)c1ccccn1 | active: 2.82 µM | –
COc1ccc(NC(=O)Nc2ccccc2SC)cc1 | – | inactive: -4.37%
CCOc1cc(C(=O)N2CCC3(CC2)NCCc2[nH]cnc23)cc(OCC)c1OCC | inconclusive [inhibitor, single point] | –
CCOC(=O)c1cc(S(=O)(=O)Nc2cccc(OC)c2)cn1C | inconclusive [inhibitor, single point] | –
COC(=O)c1cc(OC)c(OC)cc1NC(=O)C(C)Sc1ccc(C)cc1 (stereo not drawn) | inconclusive [inhibitor, partial curve, poor fit] | –
Cc1ccc(O)c(-c2cc(-c3cccc(Br)c3)n[nH]2)c1 | inconclusive [inhibitor, partial curve, poor fit] | –
O=C(CCC1CCCN(C(=O)c2ccc3c(c2)OCCO3)C1)NCc1ccccc1F (stereo not drawn) | – | inactive: 0.565%
COc1cc(/C=C2\SC(=S)N(CCC(=O)N3CCN(C)CC3)C2=O)cc(OC)c1OC | inconclusive [inhibitor, partial curve] | –
Cc1cc(C)c(S(=O)(=O)N2CCCC2CNC(=O)c2ccc3c(c2)OCO3)c(C)c1 (stereo not drawn) | inconclusive [inhibitor, single point] | –
CCc1ccc(CN(C)C(=O)c2cc(COc3ccc(OC)cc3Cl)on2)nc1 | – | inactive: -24.5%
CC(Oc1ccc(Cl)cc1)C(=O)NCCN1C(=O)S/C(=C\c2cccnc2)C1=O (stereo not drawn) | inconclusive [inhibitor, partial curve] | –
O=c1[nH]c(C2CCN(S(=O)(=O)c3ccccc3F)CC2)nc2c1nnn2Cc1ccc(F)cc1 | – | inactive: 6.35%
COc1cc(NC(=O)CSCC(=O)Nc2cc(OC)cc(OC)c2)cc(OC)c1 | – | inactive: -15.7%
Cc1cccc(NC(=O)CSCC(=O)Nc2ccc(S(=O)(=O)N3CCCCC3)cc2)c1 | inconclusive [inhibitor, single point] | –
CCn1c(O)c(N=NC(=O)Cc2csc(N3CCOCC3)n2)c2ccccc21 | inconclusive [inhibitor, partial curve, poor fit] | –
COC(=O)C1=C(C)N(CCCC(=O)O)C(=O)NC1c1ccccc1OS(=O)(=O)c1ccccc1[N+](=O)[O-] (stereo not drawn) | inconclusive [inhibitor, single point] | –
Cc1cc2oc(C(=O)NCc3ccncc3)c(C)c2cc1C | inconclusive [inhibitor, partial curve] | –
N[C@@H](Cc1ccccc1)c1nnc(SCc2ccccc2F)o1 | – | inactive: -10.6%
Cc1ccccc1Cc1c(C)nc2nc(SCC(=O)NCCCN3CCCC3)nn2c1C | inconclusive [inhibitor, single point] | –

Compound | Potency | activity change, negative = inhibition
O=C(CSc1nc(-c2ccccc2)c(-c2ccccc2)[nH]1)NCc1ccco1 | inconclusive [inhibitor, single point] | –
Cc1ccc2nc(/N=C(\N)NC(=O)N3c4ccccc4Sc4ccccc43)nc(C)c2c1 | inconclusive [inhibitor, partial curve] | –
CCc1noc(C)c1C(=O)Nc1nc2ccc(F)cc2s1 | inconclusive [inhibitor, single point] | –
CCOC(=O)c1cnn(-c2ccccc2)c1-n1cccc1 | inconclusive [inhibitor, single point] | –
Cc1ccc(NC(=O)CN(C)C(=O)CSc2nc3ccccc3o2)cc1 | – | inactive: -17.4%
O=C(COc1ccc(Cl)cc1Br)Nc1ccccc1N1CCCC1 | inconclusive [inhibitor, single point] | –
O=C(NCCN1CCN(c2ccc([N+](=O)[O-])cc2)CC1)NCc1ccccc1 | – | inactive: -13.9%
Cc1ccc(-c2noc(C3CCCN(S(=O)(=O)c4ccc5ccccc5c4)C3)n2)o1 (stereo not drawn) | – | inactive: -0.379%
Cc1cccc(NC(=S)NCCN(C2CCCCC2)C2CCCC2)c1 | inconclusive [inhibitor, single point] | –
CC(C)c1ccccc1OCCNC(=O)c1cncc(Br)c1 | inconclusive [inhibitor, single point] | –
COc1ccc(CNn2c(-c3ccccc3F)nc3ccccc3c2=O)cc1OC | inconclusive [inhibitor, full curve] | –
Cc1c(NC(=O)c2cc(-c3cccs3)nc3ccccc23)c(=O)n(-c2ccccc2)n1C | inconclusive [inhibitor, single point] | –
CC12CCC3C(CCC4C/C(=N/O)CCC43C)C1CCC2O (stereo not drawn) | inconclusive [inhibitor, single point] | –
COc1ccc(C(CNC(=O)c2ccc(-c3cccc(C(F)(F)F)c3)o2)N2CCOCC2)cc1 (stereo not drawn) | inconclusive [inhibitor, partial curve] | –
CC1=C(C(=O)Nc2cc(C(=O)N3CCN(c4cccc(C)c4C)CC3)ccc2C)SCCO1 | active: 11.2 µM | –
COc1cc(OC)cc(-c2nc(SCC(=O)Nc3ccccc3F)n[nH]2)c1 | inconclusive [inhibitor, single point] | –
CSc1ncccc1C(=O)Nc1nc(C(C)(C)C)cs1 | inconclusive [inhibitor, partial curve, poor fit] | –
Cc1cccc(NC(=O)c2sc3nc(N4CCOCC4)c4c(c3c2N)CCCC4)c1 | inconclusive [inhibitor, partial curve] | –
Cc1cc(SCC(=O)N(C)c2c(N)n(Cc3ccccc3)c(=O)[nH]c2=O)nc2ccccc12 | inconclusive [inhibitor, partial curve, poor fit] | –
CCc1nnc(NC(=O)CCS(=O)(=O)c2ccc(C)cc2)s1 | – | inactive: 6.43%
CCCCOc1ccc(CC2CCC(=O)NC2=O)cc1 (stereo not drawn) | – | inactive: 0.677%
CCC(OC(=O)C1=Cc2ccccc2OC1)C(=O)NC1CCCC1 (stereo not drawn) | inconclusive [inhibitor, single point] | –
CCCOc1cccc(C(=O)NC(=S)Nc2ccc(N3CCN(C)CC3)cc2)c1 | inconclusive [inhibitor, partial curve] | –

Compound | Potency | activity change, negative = inhibition
CCCCC(=O)NCCc1cc2c(OC)ccc(OC)c2[nH]c1=O | inconclusive [inhibitor, single point] | –
Nc1c(N(CCC2=CCCCC2)C(=O)c2ccco2)c(=O)[nH]c(=O)n1Cc1ccccc1 | – | inactive: 7.13%
Cc1ccc(NC(=O)CN2C(=O)NC3(CCCC3)C2=O)cc1S(=O)(=O)N1CCCCC1 | inconclusive [inhibitor, single point] | –
C/C(=N\NC(=O)c1ccco1)c1cc2ccccc2o1 | – | inactive: -4.67%
O=S(=O)(Nc1cccc2ncccc12)c1cccs1 | inconclusive [inhibitor, partial curve] | –
Cc1ccc(-c2cc(C(=O)NCc3ccccn3)c3ccccc3n2)cc1 | inconclusive [inhibitor, single point] | –
Cc1ccc(NC(=O)c2ccccc2OCC(=O)c2ccc(F)cc2)cc1 | inconclusive [inhibitor, full curve] | –
N#Cc1c(-c2ccccc2)cc(-c2ccccc2)nc1SCCC(=O)O | – | inactive: 11%
O=C(NCC1CCCO1)c1cncc(Br)c1 (stereo not drawn) | – | inactive: 12.2%
CCOC(=O)c1cc(-c2ccc(F)cc2)n(CCC(=O)NC2CCN(Cc3ccccc3)CC2)c1C | active: 3.98 µM | –
CCC(C)c1ccccc1N1CC(C(=O)Nc2ccccc2N2CCCC2)CC1=O (stereo not drawn) | inconclusive [inhibitor, full curve] | –
COc1cccc(C(=O)NC2CCCc3c2cnn3-c2cc(C)cc(C)c2)c1 (stereo not drawn) | inconclusive [inhibitor, single point] | –
Cc1ccc(NC(=O)c2ncn(CCCN(C)CCc3ccccn3)n2)cc1C | – | inactive: -1.19% [at 8.37 µM]
O=c1[nH]c(NNC(=S)NCc2ccccc2)nc2c1C1(CCCCC1)Cc1ccccc1-2 | – | inactive: 12.2%
Cc1sc2nc(SCC(=O)NCCO)n(C)c(=O)c2c1C | – | inactive: -2.07%
COc1cc(NC(=S)N2CCN(c3ccccn3)CC2)cc(OC)c1OC | – | inactive: -4.59%
O=C1N[C@@H](c2ccccc2)COC(=O)[C@H](Cc2ccc(F)cc2)CC/C=C/C[C@@H]1CC(=O)N(CCO)Cc1ccccc1 | inconclusive [inhibitor, single point] | –
CCOC(=O)c1c(C)[nH]c(NC(=O)NNC(=O)c2ccccc2Cl)c1C | active: 11.2 µM | –
Cc1ccc(C)c(N2CCN(C(=O)CCS(=O)(=O)c3cccc4nonc34)CC2)c1 | inconclusive [inhibitor, single point] | –
COc1ccc(C2Nc3ccccc3C(=O)N2NS(=O)(=O)c2ccc(C)cc2)cc1 (stereo not drawn) | inconclusive [inhibitor, single point] | –
CCCS(=O)(=O)c1nc(S(=O)(=O)c2ccc(C)cc2)c(N2CCc3ccccc3C2)s1 | inconclusive [inhibitor, single point] | –
Cc1cc(C)c(NC(=O)CN2CCN3CCCC3C2)c(C)c1 (stereo not drawn) | inconclusive [inhibitor, single point] | –
